PMC4336329 (PLoS ONE, 2015)
In all, about 310,000 compounds went through this assay and about 14,000 (4.5%) showed an effect of 50% or more. Effects have a minus sign here. This is one part of the list.

Biological target: human ether-à-go-go-related gene (hERG) potassium channel (human, UniProt Q12809)
Experiment: primary screen, population patch clamp on CHO cells stably expressing hERG
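Note: peak tail current of the secondary pulse compared with the same well before compound.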

Chain of human ether-à-go-go-related gene (hERG) potassium channel (Q12809 whole entry, looked up): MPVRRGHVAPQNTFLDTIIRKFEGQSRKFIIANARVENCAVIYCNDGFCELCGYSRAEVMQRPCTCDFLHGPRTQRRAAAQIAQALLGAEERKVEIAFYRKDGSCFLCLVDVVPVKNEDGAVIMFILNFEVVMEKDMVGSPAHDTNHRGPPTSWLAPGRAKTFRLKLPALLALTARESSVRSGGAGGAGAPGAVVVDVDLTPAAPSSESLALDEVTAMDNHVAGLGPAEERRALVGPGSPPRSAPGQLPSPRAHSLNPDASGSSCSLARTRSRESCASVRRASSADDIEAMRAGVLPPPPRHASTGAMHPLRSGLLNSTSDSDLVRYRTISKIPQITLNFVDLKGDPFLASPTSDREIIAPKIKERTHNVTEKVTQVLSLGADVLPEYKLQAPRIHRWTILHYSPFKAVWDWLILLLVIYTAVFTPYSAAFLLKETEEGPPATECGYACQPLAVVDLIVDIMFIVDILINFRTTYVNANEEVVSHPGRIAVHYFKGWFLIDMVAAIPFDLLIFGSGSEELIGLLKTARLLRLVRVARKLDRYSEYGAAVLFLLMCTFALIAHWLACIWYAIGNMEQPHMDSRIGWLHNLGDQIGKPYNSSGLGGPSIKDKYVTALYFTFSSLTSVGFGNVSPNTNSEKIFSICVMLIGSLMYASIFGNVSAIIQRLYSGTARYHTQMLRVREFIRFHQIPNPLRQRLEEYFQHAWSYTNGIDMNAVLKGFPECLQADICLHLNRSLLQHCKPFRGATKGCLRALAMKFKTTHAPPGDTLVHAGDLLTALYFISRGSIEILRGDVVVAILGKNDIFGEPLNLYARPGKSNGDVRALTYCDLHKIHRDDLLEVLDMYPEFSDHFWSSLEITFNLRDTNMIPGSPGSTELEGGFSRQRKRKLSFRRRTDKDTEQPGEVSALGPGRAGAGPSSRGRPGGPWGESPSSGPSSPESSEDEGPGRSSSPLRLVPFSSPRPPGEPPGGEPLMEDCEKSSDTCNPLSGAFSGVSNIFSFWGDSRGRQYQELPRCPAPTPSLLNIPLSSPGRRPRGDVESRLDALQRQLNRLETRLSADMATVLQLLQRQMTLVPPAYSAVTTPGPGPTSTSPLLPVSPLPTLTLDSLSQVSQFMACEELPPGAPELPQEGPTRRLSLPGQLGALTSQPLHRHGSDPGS

Compound | hERG current change (%, negative = inhibition) at 10uM [%]
CCN(CC)C(=O)Oc1ccc2c(=O)c(-c3ccccc3)coc2c1 | 0.84
NC(Cc1ccccc1)c1nc(-c2ccccc2)no1 (centres unmarked) | -10.5
Cc1cc(C(C#N)c2ccccc2F)n2ncnc2n1 (centres unmarked) | 2.72
CC(C)OC(=O)CCC(=O)Nc1nc2ccccc2s1 | 5.56
O=C(COC(=O)C1COc2ccccc2O1)Nc1ccc2c(c1)CCC2 (centres unmarked) | 13.6
CCn1c(SCc2cccc(F)c2)nc2c(c1=O)SCC2 | -6.33
CCN1CCN(C(=O)Cn2nc(C)n3c(cc4c(OC)cccc43)c2=O)CC1 | 5.58
COC(=O)C1=C(C)N(C)C(=O)NC1c1ccc(C)cc1 (centres unmarked) | -3.08
COc1ccc(C=Nc2cccc3c(=O)[nH][nH]c(=O)c23)c2ccccc12 | 6.37
COc1ccc(-c2[nH]ncc2/C=C(\C#N)C(=O)NC2CC2)cc1 | -4.57
COC(=O)[C@@]1(Cc2ccc(F)cc2)[C@H]2c3cc(C(=O)N4CCCC4)n(CCc4ccccn4)c3C[C@H]2CN1C(=O)c1ccccc1 | -64.1
Nn1c(-c2cccs2)nc2sc3c(c2c1=O)CCCC3 | -4.7
CC1(O)c2ccccc2C(=O)N1Cc1ccccc1 (centres unmarked) | -23.8
Cc1cccc2cc3c(N)c(C(=O)N4CCCc5ccccc54)sc3nc12 | -0.302
COc1cc2[nH]c(=O)n(CCC(=O)N3CCc4ccccc4C3)c(=O)c2cc1OC | 5.04
Cc1ccc(OCc2nnc(NC(=O)OCC(C)C)s2)cc1 | 7.08
O=C(/C=C/c1cccc(Cl)c1)c1ccc([N+](=O)[O-])o1 | -2.44
C/C(=N\Nc1nccnc1Cl)c1ccc(Br)cc1 | -5.02
COc1ccc(NC(=O)C(NS(=O)(=O)c2cccs2)C(C)C)cc1Cl (centres unmarked) | -26.2
COc1ccc(CNC(=O)C(=O)NCC2OCCN2S(=O)(=O)c2ccc(F)cc2)cc1 (centres unmarked) | -3.41
Cc1cccc(N2C(=O)CC(N3CCN(c4ccccn4)CC3)C2=O)c1 (centres unmarked) | 11.4
COC(=O)C(O)(c1ccc(NC(=S)NC(=O)c2ccc(Cl)cc2Cl)c(C)c1)C(F)(F)F (centres unmarked) | 6.47
O=C(COC(=O)c1ccc2c(c1)OCCO2)Nc1cccc(S(=O)(=O)N2CCOCC2)c1 | -24.3

Compound | hERG current change (%, negative = inhibition) at 10uM [%]
CCCN(CC(=O)Nc1ccc(C(N)=O)cc1)CC(=O)Nc1ccc(F)c(F)c1F | 13.3
C#Cc1ccc([C@@H]2C=C(C(=O)O)O[C@H](OCc3ccc(CO)cc3)C2)cc1 | 5.85
CCOc1ccc(C(=O)OCC(=O)N(Cc2ccccc2)Cc2ccccc2)cc1OC | -6.33
Cc1nc(-c2ccc(C(=O)Nc3ccccc3F)cc2)cs1 | 11.8
O=C(NNC(=O)c1ccc(Br)o1)c1csc(N2CCOCC2)n1 | -2.39
Cc1ccc(CN(Cc2cc3cccc(C)c3[nH]c2=O)C(=S)NCCCN(C)C)cc1 | -65
CCC(C(=O)NC1CCCC1)N(C(=O)c1snc(C(N)=O)c1N)c1ccc(C)cc1C (centres unmarked) | -7.83
COCCCN1C(=O)CC(C(=O)OC)=C1C | 16.6
CN(C)C(CNC(=O)Nc1cccc(Cl)c1)c1cccnc1 (centres unmarked) | -7.28
Nc1nonc1C(=O)NCCNc1ccc([N+](=O)[O-])cn1 | -1.34
CCNc1nc(NCC)nc(SCCOC(=O)c2ccccc2)n1 | -39.4
Cc1ccc(C)c(C(=O)NCc2ccncc2)c1 | 0.302
O=C(CCN1C(=O)C2C3C=CC(C3)C2C1=O)NCCc1ccccc1 (centres unmarked) | 8.02
O=C(COC(=O)c1ccc(O)cc1O)Nc1ccc2c(c1)OCCO2 | 5.01
CCc1ccccc1NC(=S)N1CCC(C(=O)c2ccc(F)cc2)CC1 | -63
CCn1ncc(C(=O)Nc2ccc(F)cc2)c1C | 1.49
COc1ccccc1C(=O)NNC(=O)c1ccc(NC(=O)CC(C)C)cc1 | 11.9
COC(=O)C1=Nc2ccccc2/C1=C\c1c(O)n(-c2cc(OC)ccc2OC)c(=O)[nH]c1=O | 10.3
CCN(CC(=O)Nc1ccccc1Br)C1CCCCC1 | -10.6
COc1ccccc1NC(=O)Nc1ccccc1C#N | 15.6
COc1ccc(NC(=O)CC(C)CC(=O)NCc2ccc(F)cc2)c(OC)c1 (centres unmarked) | -4.08
CCOC(=O)c1c(NC(=O)CSc2nnnn2CC)sc(C)c1C | 1.27
CCCOc1cc(C)c(S(=O)(=O)NC2CC(C)(C)NC(C)(C)C2)cc1C | -15

Compound | hERG current change (%, negative = inhibition) at 10uM [%]
Cc1nc2ccccc2c(=O)n1NC(=O)c1ccccc1 | 4.86
O=C(NNC(=O)c1cccs1)c1ccc(Cl)cc1 | 8.63
CCCN1CCC(Oc2cccc(C(=O)NCCc3ccccc3)c2)CC1 | -66
NS(=O)(=O)c1ccc(NC(=O)C2CCCN(S(=O)(=O)c3ccc(F)cc3)C2)cc1 (centres unmarked) | 16.3
O=C1C[C@@H](c2ccccc2)Oc2cc(O)cc(O)c21 | -19.1
Clc1ccc(Cn2ncc3c(NCc4cccnc4)ncnc32)cc1 | -51.2
CS(=O)(=O)c1ccc2nc(NC(=O)CCNC(=O)c3ccccc3Cl)sc2c1 | -3.34
CCOc1ccc(NC(=O)Cn2nnc(C(=O)NCc3ccccc3OC)c2N)cc1 | 8.75
Cc1[nH]c2ccccc2c1C(=O)COc1ccccc1F | 10.7
Cc1ccc(C(=O)Nc2nccs2)s1 | 11.7
Cc1ccc(S(=O)(=O)c2nc(S(C)(=O)=O)sc2N2CCN(C)CC2)cc1 | 11.4
CCOCCCNC(=O)C1CCN(S(=O)(=O)N2CCCC2)CC1 | 25
Cc1nc2sc(-c3ccccc3)cc2c(=O)n1N | 13.4
Cc1ccc2[nH]c(=O)c(CN(Cc3ccco3)C(=O)c3ccncc3)cc2c1 | -43.4
O=c1c2c3c(sc2n2c(=S)[nH]nc2n1-c1ccccc1)CCC3 | 12.5
COC(=O)CC1C(=O)NCCN1C(=O)c1ccccc1 (centres unmarked) | 14.3
C=CCc1cccc2cc(C(=O)OCC)c(=O)oc12 | -42.3
CC1(C)CC(N(Cc2ccco2)C(=O)Cc2ccccc2)CCO1 (centres unmarked) | 5.11
CCOc1ccc(CN2CCN(Cc3cccc4c3OCO4)CC2CCO)cc1 (centres unmarked) | -77.4
COC(=O)c1cc(NC(=O)Cc2coc3cc(OC)ccc23)cc(C(=O)OC)c1 | 0.0647
COC(=O)c1ccc(Sc2ccccn2)c([N+](=O)[O-])c1 | -12
N#CCCN(C(=O)COC(=O)c1ccc2c(=O)n3c(nc2c1)CCC3)c1ccc(F)cc1 | -17.2
COC(=O)c1cc(OC)c(OC)cc1-n1cnc2cc(OC)c(OC)cc2c1=O | 19.5

Compound | hERG current change (%, negative = inhibition) at 10uM [%]
CCC(=Nc1ccccc1OC)C1=C(O)CC(c2ccccc2)CC1=O (centres unmarked) | -0.0823
C=CCN1C(=O)C2(OCCCO2)c2cc(Cl)ccc21 | -0.735
Cc1[nH]c2ccccc2c(=O)c1CN1CCCCC1 | -5.58
CCO[C@@H]1OC(C(=O)NCc2ccccc2)=C[C@H](c2coc3ccccc3c2=O)[C@H]1CCCO | -47.5
Cc1ccc2c(c1)N(Cc1ccncc1)C(=O)C(C)O2 (centres unmarked) | -20.3
CC(Oc1ccc(F)cc1)C(=O)Nc1cc(S(=O)(=O)N2CCOCC2)ccc1N1CCCC1 (centres unmarked) | 13.7
CCn1cc(C(=O)NCCc2ccccc2)c(=O)c2cc(F)c(N3CCN(C)CC3)cc21 | -23.9
COc1cc(OC)cc(C(=O)Nc2ccc(Br)cc2C(=O)c2ccccc2)c1 | 10.5
Cc1ccc2[nH]c(=O)c(CN(C(=O)c3cccc([N+](=O)[O-])c3)C(C)(C)C)cc2c1 | 9.79
CC(C)CN1C2CCCC1CC(NC(=O)c1ccc([N+](=O)[O-])cc1)C2 (centres unmarked) | -78.3
CC(C)c1cc(-c2cc(-c3ccccc3)on2)nc(NC2CCCC2)n1 | 6.4
Cc1cccc(NC(=O)CN(C)C(=O)C2CC2)c1C | 17.6
CCCCCN(C(=O)CCC(=O)OCc1ccc(C(C)(C)C)cc1)c1c(N)n(CCCC)c(=O)[nH]c1=O | -8.09
CCOC(=O)/C=C/C(=O)OCC(=O)NCc1ccccc1 | 14.7
Cc1ccc(OCCCC(=O)Nc2ccc(Br)cc2)cc1 | 17.2
Cc1cc(C)c(S(C)(=O)=O)c(=O)[nH]1 | 30.8
COCCN1CCN(C(=O)c2cc(COc3ccc(F)c(F)c3)on2)CC1 | -3.01
O=C(COc1ccc(F)cc1F)NNC(=O)Nc1cccc([N+](=O)[O-])c1 | -9.49
Cc1cc(OCC(=O)N2CCC(C(=O)O)CC2)c2c(C)c(C)c(=O)oc2c1 | 19.4
Cc1cc(C)n2nc(SCC(=O)NC(=O)c3ccccc3Cl)nc2n1 | 0.516
